The values below come from the RNAGym collection of RNA variant scans (doi:10.1101/gad.245936.114).

This sample is rich in variants without activity.

The chains are these.
B1: tRNA (parent)
chain: CUCUCGGUAGCCAAGUUGGUUUAAGGCGCAAGACUUUAAUUUAUCACUACGAAAUCUUGAGAUCGGGCGUUCGACUCGCCCCCGGGAGAUUUUUUCCUCGAGCAA

This series covers variants of B1. Kind of series: nonsense suppression (GFP-seq) (ratio to wild type); higher = more function; SUP4oc tRNA, yeast GFP reporter sort-seq. The procedure, abridged:
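Raffinose/galactose medium with 80 mg/L adenine was used to grow yeast carrying genome-integrated tRNA variants (~3% random-mutation library), RFP, and a galactose-driven GFP ochre reporter. Cells went into GFP/RFP bins, which were Illumina-sequenced, and variants with ≥100 reads and ≥30 cells were scored. Nonsense suppression (GFPSEQ) is the per-bin median GFP/RFP weighted by estimated cell share and expressed relative to the unmutated parent tRNA.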
As to AUCUCGAUAGUCAAGUUGGUUUAAGGCGCGAGACGUUAAUUUAUCACUACGAAAUCUUGUGAUCGGGCCUUCGACUCGCCCCCGGGAGAUUUUUUCCUCGAGCAA [C1A G7A C11U A30G U35G A60U G69C], the nonsense suppression was not above 0.026. CUCUCGGUAGCCAAGUUGGUUUAAGGCGCAAGACGUUAAUUUAUCACUACGAAAUCUUGAGAUCCGGCGAUCGACUCGCCCCCGGGAGAUUUUUUCCUCGAGCAA [U35G G65C U70A]: the nonsense suppression is not above 0.026. As for CUCUCGGUAGCCAAGUUGGUUUAAGGCGCAAGACUUUAAUUUAUCACUACGAAAUUUUGAGAUGGGGCGUUCCACUCGCCGCCGGGAGAUUUUUUCCUCGAGCAA [C56U C64G G73C C81G], the figure is not above 0.026; as for CUCUCGGUAGCAAAGUUUGUUUGAGGCGCAGGACUUUAAUUUAUCACUACGAAAUCUUGAGAUCGGGCGUUCGACUCGCCCCCGGGAGAUUUUUUCCUCGAGCAA [C12A G18U A23G A31G], not above 0.026; as for GUCUCGGUGGACAAGUUGGUAUAAGGCGCCAGACUUUAAUUUAUCACUACGAAAUCUUGAGAUCGGGCGUUCGACUCACCCCCGGGAGAUUUUUUCCUCGAGCAA [C1G A9G C11A U21A A30C G78A], not above 0.026.

Regarding CUCUCGGUAGCCAAGUUGGUUUAUGGCGCAAGACUUUAAUUUAUCACUACGAAAUCUUGAGAUCCGGCGUUCGGCUCGCCCGCGAGAGAUUUUUUCCUCGAGCAA [A24U G65C A74G C82G G85A], the nonsense suppression was not above 0.026. As for AUCUCGGUAGUCAAGUUGGUUUAAGGCGCAAGACUUUAAUUUAUCACUACGAAAUCUUGAGAUCGGGCGUUCGACUCGCCCCCGGGAGAUUUUUUCCUCGAGCAA [C1A C11U], the nonsense suppression is not above 0.026. Then CUCUCGGUAUCCAAGGUGGUUUAAGGCGCAAUACUUUAAUUUAUCACUACGAAAUCUUGAGAUCGGGCGUUCGACUCGCCCCCGGGCGAUUUUUUCCUCGAGCAA [G10U U16G G32U A87C], with not above 0.026; and CUCUAGGUAGCCAAGUUGGUUUAAGGCGCAAGACUUUAAUUUAUCACUACGAAAUCUAGAGAUCGGGCGUUCGACUCGCCCCCGGGAGAUUUUUUCCUCGAGCAA [C5A U58A], with not above 0.026. As to CUCUCGGUAGCCAAGUUGGUUUAAGGCGCAACACUUUAAUUUAUCACUACGAAAUCAUGAGAUCGGGCAUUCGACUCGCCCCCGGGAGAUUUUUUCCUCGAGCAA [G32C U57A G69A], the nonsense suppression is not above 0.026. Then CUCUCGGUAGCCAAGUUGGUUUAAGGCGUAGGUCUUUAAUUUAUCACUACGAAAUCUUGAGAUCGGGCGUUCGACUCAUCCCCGGGAGAUUUUUUCCUCGAGCAA [C29U A31G A33U G78A C79U], with not above 0.026; and CUCUCGGUGGCCAAGUUGGUUUAAGGCGCAAGACUUUAAUUUAUCACUACGAAAUCUAGAGAUCGGGCGUUCGACUCGCCCCCGGGAGAUUUUUUCCUCGAGCAA [A9G U58A], with not above 0.026; and CUCUCGGUAGCCAAGUUGGUUUAAGGCGCAAGACUUUAAUUUAUCACUACGAAAUCUUGGGAUCGGGCGUACGACUCGCCCCCGGGAGAUUUUUUCCUCGAGCAA [A60G U71A], with not above 0.026. As to CUCUCGGUAGCCUAGUUGGUUUAAGGCCCAAGACUUUAAUUUAUCACUACGAAAUCUUGAGAUCGGGCGUUCGACUCGCCCCCGGGAGAUUUUUUCCUCGAGCAA [A13U G28C], the nonsense suppression amounted to 0.227.

Consider CCCUCGGUAGCCAAGUUGGUUUAAGGCGCAAGACUUUAAUUUAUCACUACGAAAUCUUGAGAUCGGGCGUUCGACUCGCACCCGGGAGAUUUUUUCCUCGAGCAA [U2C C80A], for which the nonsense suppression was not above 0.026. As for CUCUCGGUAGCCAAGUUGGUUUAAGGCGCAAGACUUUAAUUUAUCACUACGAAAUCUUGAGAUCGGGCGUUCGACAAGCCCCCGGGAGAUUUUUUCCUCGAGCAA [U76A C77A], the nonsense suppression was not above 0.026. Then CUCUCGGUACCCAAGUUGGUUUAAGGCGCAAGACUUUAAUUUAUCACUACGAAAUCUUAAGAUCGGGCGUUCGACAGGCCCCCGGGAGAUUUUUUCCUCGAGCAA [G10C G59A U76A C77G], with not above 0.026; and GUCUCGGUUGCCAAGUUGGUUUAAGGCGCAAGACUUUAAUUUAUCACUACGAAAUCUAGAGAGCGGGCGUUCGACUCGCCCCCGGGACAUUUUUUCCUCGAGCAA [C1G A9U U58A U63G G88C], with not above 0.026.

Consider CUCUCGGUAGCCAACUUGGUUUAAGGCGCAAGACUUUAAUUUAUCACUACGAAAUUUUGAGAUCGGGCGUUCGACUCGCCCCCCGGAGAUUUUUUCCUCGAGCAA [G15C C56U G84C], for which the nonsense suppression is not above 0.026.

For CUCUCGAUAGCCAAGUUGCUUUAAGGCGCAAGAUUUUAAUUUAUCACUACGAAAUCUUGACAUCGGGCGUUCGACUCGCCCCCGGGCGAUUUUUUCCUCGAGCAA [G7A G19C C34U G61C A87C], the nonsense suppression was not above 0.026.

Take CUCUCGGUAGCCAAGUUGGUUUAAGGCGCAAGACUUUAAUUUAUCACUACGAAAUUUUGAGCUCGGGCGUUCGACUCGCCCCCGGGAGAUUUUUUCCUCGAGCAA [C56U A62C]: the nonsense suppression is not above 0.026. As for CUCUGGGUAGCCAAGUUGGUUUAAGGCGAAAGACUUUAAUUUAUCACUACGAAAUCUUGAGAUCAGGCGUAAGACUCGCCCCCGGUAGAUUUUUUCCUCGAGCAA [C5G C29A G65A U71A C72A G86U], the figure is not above 0.026; as for CUCUCGGUAGCCAAGUUGGUUUAAGUCGCAAGGCUUUAAUUUAUCACUACGAAAUGUUGAGAUCGGGCGUUCGACUCGCCCCCGGGAGAUUUUUUCCUCGAGCAA [G26U A33G C56G], not above 0.026; as for CUCUUGGGAGCCAAGUUGGUUUAAGGCGCAAGACUUUAAUUUAUCACUACGAAAUCUUGAGAUCGGGCGUUCGACUCGCCCCCGGGAGAUUUUUUCCUCGAGCAA [C5U U8G], not above 0.026. Then CUCUCGGUUGCGAAGUUGGUUUAAGGCGCAAGACGUUAAUUUAUCACUACGAAAUCUUGAGAUCGGGCGUUAGACUCGCCCCCGGGAGAUUUUUUCCUCGAGCAA [A9U C12G U35G C72A], with not above 0.026; and CUCUCGGUGGCCAUGUUGGUUUAAGGCGCAAGACUUUAAUUUAUCACUACGAAAUCUUGAGACCAGGCGUUCGACUCGCCCCCGGGAGUUUUUUUCCUCGAGCAA [A9G A14U U63C G65A A89U], with not above 0.026; and CUCUCGGUAGCCUACUUGGUUUAAGGCGCAAGACUUUAAUUUAUCACUACGAAAUCUUGAGAUCGGGCGUUCGACUCGCCCCCGGGAGAUUUUUUCCUCGAGCAA [A13U G15C], with not above 0.026.
